Among all 44,000 compounds or so, about 340 (0.77%) were called active. Not shown: some 5% with an inconclusive outcome. The call rests on the fitted dose curve; in most records, active means well fitted inhibition curve with a large enough effect; inconclusive means small, poorly fitted or top-dose-only effect; inactive means flat fitted curve, though single readings scatter. This is one part of the list.
Test: Acumen qHTS Assay for Inhibitors of the mTORC1 Signaling Pathway in MEF (Tsc2-/-, p53-/-) Cells: Sytravon;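 further: plate controls were DMSO for no effect and rapamycin for full effect; nearly all actives have a fitted effect of over 50% in size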
Conditions: phospho-rpS6 immunofluorescence/PI, 24 h; series mostly up to 38.3 µM; activity change, negative = inhibition: at the top concentration
How it was run: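 Compounds act on Tsc2-/-, p53-/- fibroblasts carrying an empty vector for 24 h before fixation and dual staining for phospho-S6 and DNA (propidium iodide). Values are percentages of cells above a rapamycin-defined pS6/PI threshold.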

Activity change, negative = inhibition, inactive:
Cc1ccc(-c2nc(SCC(=O)Nc3cc(C)on3)c3c(=O)n(C)c(=O)n(C)c3n2)cc1 -29.5%
Cc1cccc(N2CCN(C(=O)c3ccc4c(c3)N(Cc3cccc(Cl)c3)C(=O)c3ccccc3S4=O)CC2)c1C (stereo not drawn) -11.7%
COc1ccccc1NC(=O)c1c(NC(=O)c2cccs2)sc2c1CCC(C(C)(C)C)C2 (stereo not drawn) 4.63%
CCCCCNc1nc2c(-c3ccccc3)nnn2c2ccccc12 -11.1%
CCc1ccc(OC(=O)c2sc3ncn(Cc4cccc(F)c4)c(=O)c3c2C)cc1 -4.64%
Cc1ccc(NC(=O)c2cc(-c3cccs3)nc3ccccc23)c(C)c1 -10.6%
CC(C)CCn1c(=O)c2sccc2n2c(CCCC(=O)Nc3ccc(F)c(Cl)c3)nnc12 4.47%
O=C(NCc1ccc(F)cc1Cl)c1ccc(CSCc2ccccc2Cl)o1 1.84%
Cc1ccc(N2CCN(C(=O)Nc3cn(CC(C)C)c(=O)c4ccccc34)CC2)c(C)c1 4.85%
CC(C)Oc1ccc(CNC(=O)c2cnc3sc(N4CCCCCC4)nn3c2=O)cc1 -1.85%
CCOc1ccc(/C=C/c2nc(C#N)c(N3CCCCCC3)o2)cc1 0.145%
Cc1ccc(CNC(=O)c2ccc(CSCc3c(F)cccc3Cl)o2)cc1 8.42%
COc1ccccc1NC(=O)Cn1c(=O)n(Cc2nc(C)no2)c(=O)c2cc3c(cc21)OCO3 -9.61%
COc1ccccc1NC(=O)N1CCOc2ccccc21 0.236%
Cc1cc(C)n2nc(CNS(=O)(=O)c3ccc(F)cc3)nc2n1 0.902%
CCCN(CCC)CCNC(=O)Cn1cnc2sc(C)c(S(=O)(=O)N3CCN(c4ccccc4OC)CC3)c2c1=O -0.321%
COC(=O)c1cc2oc3ccccc3c2n1CC(=O)Nc1ccc(C)cc1Cl -1.38%
COc1cccc(CNC(=O)c2ccc(CN3CC(=O)N4CCCCC4C3=O)cc2)c1 (stereo not drawn) -4.06%
COc1ccccc1/C=C(\C#N)C(=O)NCC1CCCO1 (stereo not drawn) -0.335%
CCn1c(C(=O)NCc2ccccc2)cc2sc(Cl)cc21 -1.06%
CCOc1ccc(-n2c(SCC(=O)N3CCCc4ccccc43)nc3c([nH]c4ccccc43)c2=O)cc1 -0.534%
CCOc1ccccc1NC(=O)CCS(=O)(=O)c1ccc(OC)cc1 3.93%
CCc1ccc(NC(=O)c2cc(CN3CCOCC3)on2)cc1 -0.74%
CN(c1ccc(Cl)cc1)S(=O)(=O)c1nnc(NC(=O)c2ccco2)s1 -1.51%
CCOC(=O)c1[nH]c(C)c(C(=O)NCCc2ccccc2)c1C -3.82%
O=C(CCn1c(=O)c2ccccc2n(Cc2ccc(Cl)cc2)c1=O)NCc1ccc2c(c1)OCO2 -20.8%
COc1ccc(CCNC(=O)C(=O)Nc2ccc(C)c(C)c2)cc1OC 10.4%
CCCCC(=O)Nc1cccc(-c2nc3ccccc3s2)c1 -26.7%
Cc1cccc(-n2ccnc2SCC(=O)Nc2cc(C(F)(F)F)ccc2Cl)c1 -14.1%
CC(C)c1ccc(Nc2c(-c3ccsc3)nc3ccc(Cl)cn23)cc1 -5.01%
COc1ccc(C)cc1NC(=O)Cc1ccc(NC(=O)N2CCCCc3ccccc32)cc1 -22.8%
Cc1ccc(C)c(Oc2c(C(F)(F)F)oc3c(CN4CCN(C)CC4)c(O)ccc3c2=O)c1 -0.602%
CCOC(=O)C1=C(CN(C)Cc2ccccc2)NC(=O)NC1c1ccc(OC(C)C)cc1 (stereo not drawn) -6.6%
CCn1cc(C(=O)NCc2ccccc2Cl)c(=O)c2cc(S(=O)(=O)N3CCOCC3)ccc21 1.6%
CCC(=O)C1=C(c2ccccc2)N(C(=O)CC)n2c(nnc2C2CCCCC2)S1 -0.762%
O=C(Nc1ccccc1[N+](=O)[O-])c1csnn1 0.863%
COC(=O)c1c(SC)nc2ccccc2c1OCc1cc(C)ccc1C -7.95%
CCCOc1ccc(CNC(=O)c2cc3oc4ccccc4c3n2C)cc1 0.507%
O=C(Nc1ccc2nc(SCC(=O)N3CCc4ccccc43)sc2c1)c1ccc(Cl)cc1 -0.421%
O=C(CSc1nc(-c2cccs2)cc(C(F)(F)F)n1)Nc1ccccc1Cl -24.4%
Cc1ccc(NC(=O)CN2C(=O)C(c3ccc(F)cc3)=NC2(C)C)c(C)c1 -2.23%
Cc1cccc(C(=O)Nc2sc3c(c2C(=O)Nc2ccccc2)CCC3)c1 7.94%
CCOc1ccccc1NC(=O)C(=O)NCC(c1cccnc1)N1CCN(c2ccccc2)CC1 (stereo not drawn) 7.06%
Cc1cccc(Cc2c(C)nc3nc(SCc4cccc(F)c4)nn3c2C)c1 5.46%
O=S(=O)(c1ccccc1)c1nnn2c1nc(NC1CCCCCC1)c1sccc12 -5.9%
CCOc1ccc(CCNC(=O)CN2C(=O)COc3ccc(S(=O)(=O)N(CC)CC)cc32)cc1 -4.33%
Cc1ccc(Cn2ccnc2SCC(=O)NC2CCCC2)cc1 -7.84%
COc1cc(S(=O)(=O)n2ccnc2C(C)C)ccc1Br 6.29%
Cc1ccc(-c2nc(S(=O)(=O)c3ccc(C)cc3)c(N3CCCCC3)o2)cc1 9.52%
COc1ccccc1NC(=O)COC(=O)CC(C)(C)CC1=NS(=O)(=O)c2ccccc2N1 -0.237%
COc1ccc2c(CNCc3ccco3)c(C(=O)O)n(Cc3ccccc3)c2c1 -9.74%
COc1ccc(Cl)cc1NC(=O)Cn1nnc(C(=O)NCc2cccs2)c1N -18.6%
COc1cccc(N2CC(NC(=O)C3CCCC3)CC2=O)c1 (stereo not drawn) 0.849%
COc1ccc(N2CCN(C(=O)c3c4c(nc5ccccc35)C(=O)N(C3CCCCC3)C4)CC2)cc1 -9.36%
CCc1ccc(-n2c(=O)c3ccc(C(=O)NCCc4ccccc4)cc3n(Cc3ccccc3C#N)c2=O)cc1 -5.73%
COc1ccc(-c2nc3ccccc3o2)cc1NC(=O)c1ccc(OCC(C)C)cc1 -0.86%
COc1ccc(-c2nnc(SCC(=O)c3ccc(NC(C)=O)cc3)o2)cc1OC 0.608%
COC(=O)c1c(-c2cccs2)csc1NC(=O)c1ccc(C(C)(C)C)cc1 -3.04%
NC(=O)C1CCN(C(=O)c2ccc3c(c2)N(Cc2cccc(Cl)c2)C(=O)c2ccccc2S3(=O)=O)CC1 0.654%
CCOC(=O)c1c(-c2ccc(C)cc2C)csc1NC(=O)c1ccccc1Cl 8.87%
CCOc1ccc(NS(=O)(=O)c2ccc3[nH]cc(C(=O)N(C)C4CCCCC4)c(=O)c3c2)cc1 0.512%
Cc1ccc2c(=O)cc(C(=O)Nc3c(C(=O)c4ccccc4)oc4ccccc34)oc2c1 2.78%
O=C(NCCCN1CCCCC1)c1ccc2c(c1)sc1nc(-c3ccc(F)cc3)cn12 0%

Reference: PubChem BioAssay AID493208 (National Center for Advancing Translational Sciences (NCATS), 2011)
